From article PMC2834481 (Biochemistry, 2010)

Target: WT rat Munc18-1 (rat, UniProt P61765)
Test: cross-linking

UniProt P61765, sequence (P61765 whole entry): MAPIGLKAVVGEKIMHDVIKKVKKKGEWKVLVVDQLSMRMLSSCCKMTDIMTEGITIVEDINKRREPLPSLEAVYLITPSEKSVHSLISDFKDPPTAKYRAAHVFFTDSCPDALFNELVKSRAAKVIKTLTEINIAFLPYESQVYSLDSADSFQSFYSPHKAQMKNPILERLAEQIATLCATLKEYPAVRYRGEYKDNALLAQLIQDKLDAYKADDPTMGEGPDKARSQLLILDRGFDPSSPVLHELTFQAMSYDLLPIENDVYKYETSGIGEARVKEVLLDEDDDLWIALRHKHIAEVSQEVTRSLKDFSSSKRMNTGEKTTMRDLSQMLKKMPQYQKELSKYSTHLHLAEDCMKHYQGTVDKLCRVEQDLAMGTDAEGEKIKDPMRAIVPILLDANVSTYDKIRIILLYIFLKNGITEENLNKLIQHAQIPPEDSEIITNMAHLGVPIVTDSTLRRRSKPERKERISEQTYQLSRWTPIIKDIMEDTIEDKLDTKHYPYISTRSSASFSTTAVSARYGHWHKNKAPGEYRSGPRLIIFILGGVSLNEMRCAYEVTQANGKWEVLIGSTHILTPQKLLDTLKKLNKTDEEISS

binding result: binds
B1: synaptobrevin([…]) (domain or fragment)
chain: not shown
